Data: ChEMBL document CHEMBL4888484, “Replenishing the malaria drug discovery pipeline: Screening and hit evaluation of the MMV Hit Generation Library 1 (HGL1) against asexual blood stage Plasmodium falciparum ,using a nano luciferase reporter read-out” (2022)
Hit rate of the full screen: of about 150,000 compounds, about 540 (0.36%) showed an effect of 50% or more. The list shows a part of the results.

system: Plasmodium falciparum; experiment: Primary screen in NF54 nanoGlo assay, in single point, at 2uM, 72h; a lower Z score goes with more inhibition; assay type: functional, Erythrocyte; conditions: timepoint 72 hour

SMILES | % Inhibition [%] | Z score
O=C(O)c1ccccc1-c1cc(O)cc(CC[C@H]2CCCCN2)c1 | -15 | 2.8
COc1cc(C)c2[nH]c3c(c(=O)c2c1)CN(CC(=O)Nc1cccc(C)c1)CC3 | 7 | -1.07
O=C(Cc1cc(-c2ccccc2)on1)N1CCc2ccccc2C1 | -8 | 1.03
Cc1cc(C)cc(C(=O)N(CCC(=O)N2CCNCC2)Cc2ccc(F)cc2)c1 | -9 | 1.24
CC1(C2CCCCC2)NC(=O)N(CC(O)COc2ccccc2)C1=O (stereo unspecified) | -7 | 0.62
CC1CCCC(NC(=O)C2(C)Cn3c(nc4ccccc43)C(=O)N2Cc2cccc(Cl)c2)C1C (stereo unspecified) | 11 | -1.04
CC(C)(C)CNC(=O)C(C)(C)NC(=O)Nc1ccc(F)cc1F | -16 | 1.55
Brc1cc2c(cc1CN1CCN(c3ncccn3)CC1)OCCO2 | -8 | 1.01
C[C@H]1CCCN(C(=O)c2nscc2Br)CC1 | -13 | 1.31
O=C(CC1CC(c2ccccc2)C1)NCc1nc(C(F)(F)F)n[nH]1 (stereo unspecified) | -10 | 1.03
COCc1nc(COc2cccc(F)c2)nn1CC(C)(C)O | -8 | 1.04
CC[C@H](NCCn1ccnc1)c1nccs1 | -10 | 1.32
Cc1cc(C(=O)N(C)C[C@H]2CC(=O)N(C(C)(C)C)C2)cc(C)n1 | -4 | 0.55
CN(C)c1cc(N(C)C[C@H]2CC(=O)N(C(C)(C)C)C2)ncn1 | -9 | 1.63
COc1ccc(S(=O)(=O)N(Cc2cc(OC)c(OCCC3CCCN3C)c(OC)c2)[C@H]2CCCCNC2=O)cc1 (stereo partly specified) | -9 | 1.15
Cc1cnc(C2CCN(C(=O)c3cc4ccccc4s3)CC2)s1 | 26 | -2.96
CN(C[C@H]1COc2ccccc2O1)C(=O)c1cc2c([nH]c1=O)CCCC2=O | -5 | 1.02
CC(C)c1nsc(NCC2(n3cccn3)CC2)n1 | -11 | 1.27
COc1ccc(-c2noc3nc(C4CC4)cc(C(=O)N[C@@H](C)CN4CCOCC4)c23)cc1 | 9 | -1.43
CC1CN(S(=O)(=O)N2CCOC(C(C)C)C2)CC(C)O1 (stereo unspecified) | -9 | 1.35
O=C(Cc1c(Cl)cccc1Cl)N1CCCCCCC1 | -14 | 1.45

SMILES | % Inhibition [%] | Z score
O=C(COc1ccc(Cc2ncc(C(F)(F)F)cc2Cl)cc1)c1ccc(F)cc1 | -16 | 2.3
CCCCN(CC(=O)N(Cc1ccco1)C[C@H]1CCCO1)C(=O)C1CCCC1 | -2 | 0.42
Cc1cc(NC(=O)Cn2nc(-n3ccc4ccccc43)ccc2=O)on1 | -4 | 0.88
Cc1occc1C(=O)N1CC[C@H](N(CCN2CCCCC2)C(=O)N(C)C)C1 | -6 | 0.77
CC(C)(O)C1CN(C(=O)c2nn(-c3cccc(F)c3F)c3c2CCC3)C1 | 0 | 0.06
Cc1nc(C2(C)CCN(S(=O)(=O)c3ccc(Cl)cc3C)CC2)no1 | 0 | -0.03
O=C(Cc1nnc(-c2ccc3ncccc3c2)o1)NCc1ccc(Cl)cc1 | -10 | 1.04
COCC1(NC(=O)CN2CCCCCC2)CCCC1 | -6 | 1.13
COC(=O)C(C)CC(=O)NC1CCCCC1C(F)(F)F (stereo unspecified) | -4 | 0.49
CC(=O)Oc1c(-c2ccc(NC(=O)C(C)C)cc2)c(C2CC2)nn1-c1ccc(C)cc1 | -1 | 0.18
CN(C)CCN1C(=O)N[C@@](CCc2ccccc2)(C2CCN(C(=O)c3ccccc3F)CC2)C1=O | 0 | -0.02
COc1ccc2[nH]c3c(=O)n(-c4ccccc4OC)c(O)nc3c2c1 | 4 | -0.71
CCn1c(-c2nccn2-c2ccc3[nH]nnc3c2)nc2ccccc21 | -7 | 0.98
C[C@@H](CNc1ncc(F)c(-c2ccsc2)n1)S(N)(=O)=O | 25 | -3.15
O=C(NCc1ccnc(N2CCCC2=O)c1)c1ccco1 | -3 | 0.47
O=C(Cc1c(F)cccc1Cl)Nc1nc(-c2ccc3c(c2)OCO3)cs1 | -1 | 0.07
COCCCc1nc(-c2ccc3c(c2)CCCC(=O)N3)cs1 | 10 | -1.27
O=C(Nc1nc2ccccn2n1)[C@H]1C2CCC(CC2)[C@@H]1C(F)(F)F | -11 | 1.66
Cc1nc(CCN2CCCCCC2=O)n(-c2ccc(Cl)cc2)n1 | -13 | 1.68
CCOC(=O)N1CCN(C(=O)Cc2c(C)nn(-c3nc(C)c(C)s3)c2O)CC1 | 4 | -0.52
Oc1nc(-c2cccnc2)sc1-c1ccccc1 | -2 | 0.32

SMILES | % Inhibition [%] | Z score
Cc1c(NC(=O)NC23CC2COC3(C)C)cccc1-c1ncco1 (stereo unspecified) | 13 | -1.57
CCc1nc(NC(=O)C2CCCCC2)sc1-c1nc(-c2ccccc2)no1 | -10 | 1.43
CC(NC(Cc1ccccc1)C(=O)N1CCCCC1)c1cccnc1 (stereo unspecified) | -31 | 3.68
C[C@H](CCC(=O)NCCS(=O)(=O)O)[C@H]1CC[C@H]2[C@@H]3CC[C@@H]4C[C@H](O)CCC4(C)[C@H]3C[C@H](O)C12C (stereo partly specified) | -16 | 1.43
CCN(C(=O)c1ccc(-c2ccc(O)c(CO)c2)cc1)C1CCOCC1 | -2 | 0.37
CS(=O)(=O)N1CCC(C(=O)OCc2cccc3cccnc23)CC1 | -9 | 1.68
CCc1nnc(-c2ccc(=O)n(CC(=O)N3CCN(c4cccc(Cl)c4)CC3)c2)o1 | 4 | -0.62
CN(CCOc1ccccc1)c1ccccc1 | -7 | 0.66
CN(C)c1ccc(-c2nc(C3CCCC3)n[nH]2)cn1 | -17 | 2.29
Cc1cccc(NC(=O)CNC(=O)C2CCCCC2)n1 | -9 | 1.28
CN1C[C@@H](c2nc(-c3ccc(C(F)(F)F)cc3F)no2)CC1=O | -8 | 1.3
O=C(NCCc1ccccc1)C(=O)Nc1ccc(N2CCCS2(=O)=O)cc1 | -10 | 2.02
CC(C)Oc1cncc(S(=O)(=O)N(C)c2ccn(C)n2)c1 | -18 | 2.02
CCc1oc(C(=O)N2CCC(c3nc(C)n[nH]3)CC2)cc1CN(CC)CC | -16 | 1.76
Cc1ccc2c(c1)N[C@H](C(=O)N1CCN(c3cccc(C(F)(F)F)c3)CC1)NS2(=O)=O | -5 | 0.57
COc1ccc([C@H]2C[C@@H](O)[C@@H](O)[C@@H]2NC(=O)c2ccccc2)cc1 | 8 | -1.21
O=C(c1nc(=O)[nH]c2ccccc12)N1CCNC(=O)C12CCCC2 | -7 | 1.35
COc1ncccc1N(C)C(=O)c1cncc(N2CCOCC2)c1 | -10 | 1.74
O=C(NC(=O)c1ccc(C(F)(F)F)cc1)Nc1nc(-c2cccs2)cc(C(F)(F)F)n1 | -9 | 1.2
CN(C)C(=O)c1ccc(-c2noc(C3CCC3)n2)cc1 | -15 | 2.64
CCCCc1c(C)nn(-c2nc(C)c(C(=O)N3CCCCCC3)s2)c1C | -33 | 2.93

SMILES | % Inhibition [%] | Z score
O=c1ncc2c(cnn2[C@H]2CCS(=O)(=O)C2)n1Cc1ccccc1 | 8 | -1.11
COc1cc(OC)cc(C(=O)Nc2nc(C(=O)NC3CC3)cs2)c1 | -9 | 1.72
C[C@H](NC(=O)N1CC2CCC1C2)c1cccc(O)c1 (stereo partly specified) | 1 | -0.2
O=C1CN(C2CCCC2)C(=O)N1CCCn1ccnc1 | -4 | 0.55
CN1Cc2ccc(CN(C)C(=O)CCC(F)(F)F)cc2C1 | -4 | 0.62
Cn1c(=O)n(-c2ncccc2C#N)c2ccccc21 | 4 | -0.6
CCNCc1cccc(Cl)c1Cl | 4 | -0.5
N#CC1N(Cc2ncnn2CCF)CCCC12CCCCO2 (stereo unspecified) | 4 | -0.51
O=C(Cc1ccccc1)N1CCc2nc(N3CCc4ccccc4C3)nc(N3CCCCC3)c2C1 | 3 | -0.49
Cc1cccc(N2CCC(N3CCC[C@H](c4nc(C)n[nH]4)C3)CC2)c1 | -7 | 0.84
Cc1ccc(=O)n(CC2CN(c3ncc(Cl)cn3)C2)n1 | -12 | 1.71
COc1cc(CN2CCCN(c3ccc(C)cc3NC(=O)Nc3cccc(Cl)c3)C2=O)cc(OC)c1 | -8 | 0.8
Cc1ccc(-c2n[nH]c(NC(=O)c3cnc4ccccn34)c2C)o1 | -22 | 4.28
CN1C(=O)[C@]2(Nc3ccc(Cl)cc3C(=O)N2C2CC2)c2ccccc21 | -7 | 1.06
Nc1nc(N)c(S(=O)(=O)c2ccccc2)c(Nc2ccccc2)n1 | -1 | 0.07
Cc1ccc(CN(C)C(=O)NCCN2CCOCC2)nc1 | -16 | 2.08
N#Cc1nc(-c2cccc3ccccc23)oc1N1CCN(C(c2ccccc2)c2ccccc2)CC1 | -12 | 1.44
Cc1ccc(N2CCN(Cc3ccc(C(=O)NCCN4CCCCC4)cc3)CC2)cc1 | -14 | 1.41
CCc1ccc([C@H](NC(=O)Nc2ccc(S(N)(=O)=O)cc2)c2cccc(F)c2)cc1 | -6 | 0.86
CC1CN(C(=O)CN2CCN(C)c3ccc(Cl)cc32)CC(C)O1 (stereo unspecified) | 0 | -0.02
